Test results reported in the supplement of paper PMC4967469.
The IC50 comes from the fitted curve, where viability falls to half of the control; fits outside the tested doses are given as limits. AUC is the area under the same curve over the 256-fold range up to the top dose, as a fraction: 1 means no effect, lower means more sensitive. For some of these results: An inferred top dose was derived from the fitted curves, not read from the paper. For some of these results: An entry number marks a drug with two screens in the source, which often give different values.

Experiments:
Assay in all cases: Viability of human cancer cell lines after 72 h of drug (GDSC screen)
PHA-793887 = compound: CC(C)CC(=O)Nc1n[nH]c2c1CN(C(=O)C1CCN(C)CC1)C2(C)C [PHA-793887]; conditions: top dose 10.24 µM
Procedure: (§1)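 Human cancer cell lines in 384-well plates, medium with 10% serum, drug for 72 h over a 256-fold dose range (nine 2-fold or five 4-fold steps up to the top dose). Adherent lines were fixed and stained with the nucleic acid dye Syto60, suspension lines read with resazurin; signal relative to control wells, capped at 0 and 100%. One two-parameter sigmoid per drug and line, fitted in a mixed model over all curves with the slope shared within a line.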

Epothilone B = compound: C/C(=C\c1csc(C)n1)[C@@H]1C[C@@H]2O[C@]2(C)CCC[C@H](C)[C@H](O)[C@@H](C)C(=O)C(C)(C)[C@@H](O)CC(=O)O1 [Epothilone B]; conditions: top dose 0.032 µM; top dose inferred
Procedure: as §1

PLX4720 = compound: CCCS(=O)(=O)Nc1ccc(F)c(C(=O)c2c[nH]c3ncc(Cl)cc23)c1F [PLX4720]; conditions: top dose 10 µM
Procedure: as §1

TPCA-1 = compound: NC(=O)Nc1sc(-c2ccc(F)cc2)cc1C(N)=O [TPCA-1]; conditions: top dose 20 µM
Procedure: as §1

Y-39983 = compound: C[C@@H](N)c1ccc(C(=O)Nc2ccnc3[nH]ccc23)cc1 [Y-39983]; conditions: top dose 20 µM; top dose inferred
Procedure: as §1

[1] = screen: GDSC drug entry 1371, top dose inferred

Cell Line | AUC (PHA-793887) | IC50 (PHA-793887) [µM] | AUC (Epothilone B) | IC50 (Epothilone B) [µM] | AUC (PLX4720; screen: GDSC drug entry 1036) | IC50 (PLX4720; screen: GDSC drug entry 1036) [µM] | AUC (PLX4720; [1]) | IC50 (PLX4720; [1]) [µM] | AUC (TPCA-1) | IC50 (TPCA-1) [µM] | AUC (Y-39983) | IC50 (Y-39983) [µM]
SW1417 (large intestine, adherent) | 0.982 | > 10.2 | 0.952 | > 0.032 | 0.924 | > 10 | 0.946 | > 10 | 0.881 | > 20 | 0.986 | > 20
SW1463 (large intestine, adherent) | 0.978 | > 10.2 | 0.82 | > 0.032 | – | – | 0.975 | > 10 | 0.968 | > 20 | 0.978 | > 20
SW1573 (lung adenocarcinoma, adherent) | 0.93 | > 10.2 | 0.771 | 0.0167 | 0.969 | > 10 | 0.953 | > 10 | 0.972 | > 20 | 0.981 | > 20
SW1710 (bladder, adherent) | 0.981 | > 10.2 | 0.068 | < 0.000125 | 0.946 | > 10 | 0.96 | > 10 | 0.796 | 9.67 | 0.441 | 0.856
SW1783 (glioma, adherent) | 0.991 | > 10.2 | 0.454 | 0.00152 | 0.99 | > 10 | 0.984 | > 10 | 0.972 | > 20 | 0.981 | > 20
SW1990 (pancreas, adherent) | 0.951 | > 10.2 | 0.836 | 0.0268 | – | – | 0.933 | > 10 | 0.978 | > 20 | 0.985 | > 20
Saos-2 (osteosarcoma, adherent) | 0.973 | > 10.2 | 0.977 | > 0.032 | 0.972 | > 10 | 0.978 | > 10 | 0.981 | > 20 | 0.981 | > 20
SiHa (cervix, adherent) | 0.984 | > 10.2 | 0.893 | > 0.032 | 0.987 | > 10 | 0.976 | > 10 | 0.987 | > 20 | 0.987 | > 20
T47D (breast, adherent) | 0.77 | 6.15 | 0.909 | > 0.032 | 0.978 | > 10 | 0.959 | > 10 | 0.818 | > 20 | 0.978 | > 20
T84 (large intestine, adherent) | 0.988 | > 10.2 | 0.257 | 0.000396 | 0.988 | > 10 | 0.988 | > 10 | 0.87 | 19.1 | 0.94 | > 20
T98G (glioma, adherent) | 0.946 | > 10.2 | 0.812 | 0.0155 | 0.932 | > 10 | 0.961 | > 10 | 0.929 | > 20 | 0.96 | > 20
T-24 (bladder, adherent) | 0.926 | > 10.2 | 0.813 | 0.0163 | – | – | 0.825 | 5.66 | 0.907 | > 20 | 0.922 | > 20
T-T (oesophagus, adherent) | 0.909 | > 10.2 | 0.251 | 0.000386 | 0.894 | > 10 | 0.944 | > 10 | 0.763 | 7.19 | 0.906 | > 20
TCCSUP (bladder, adherent) | 0.985 | > 10.2 | 0.613 | 0.00428 | 0.934 | > 10 | 0.944 | > 10 | 0.952 | > 20 | 0.957 | > 20
TGBC11TKB (stomach, adherent) | 0.99 | > 10.2 | 0.661 | 0.00527 | 0.988 | > 10 | 0.982 | > 10 | 0.978 | > 20 | 0.992 | > 20
THP-1 (acute myeloid leukaemia, suspension) | 0.74 | 2.86 | 0.854 | 0.0213 | 0.976 | > 10 | 0.981 | > 10 | 0.793 | 8.16 | 0.913 | > 20
TMK-1 (stomach, adherent) | 0.863 | 9.72 | 0.546 | 0.0027 | 0.986 | > 10 | 0.984 | > 10 | 0.881 | > 20 | 0.972 | > 20
TOV-21G (ovary, adherent) | 0.967 | > 10.2 | 0.979 | > 0.032 | 0.785 | 4.68 | 0.904 | > 10 | 0.934 | > 20 | 0.973 | > 20
TOV-112D (ovary, adherent) | 0.664 | 1.84 | 0.325 | 0.000646 | 0.96 | > 10 | 0.939 | > 10 | 0.69 | 4.27 | 0.896 | > 20

Cell Line | AUC (PHA-793887) | IC50 (PHA-793887) [µM] | AUC (Epothilone B) | IC50 (Epothilone B) [µM] | AUC (PLX4720; screen: GDSC drug entry 1036) | IC50 (PLX4720; screen: GDSC drug entry 1036) [µM] | AUC (PLX4720; [1]) | IC50 (PLX4720; [1]) [µM] | AUC (TPCA-1) | IC50 (TPCA-1) [µM] | AUC (Y-39983) | IC50 (Y-39983) [µM]
TT2609-C02 (thyroid, adherent) | 0.849 | 8.46 | 0.271 | 0.000425 | 0.877 | > 10 | 0.909 | > 10 | 0.876 | > 20 | 0.971 | > 20
TT (thyroid, adherent) | 0.947 | > 10.2 | 0.979 | > 0.032 | 0.956 | > 10 | 0.98 | > 10 | 0.96 | > 20 | 0.982 | > 20
TYK-nu (ovary, adherent) | 0.979 | > 10.2 | 0.87 | > 0.032 | 0.863 | 9.68 | 0.904 | > 10 | 0.967 | > 20 | 0.975 | > 20
U031 (kidney, adherent) | 0.925 | > 10.2 | 0.583 | 0.00341 | 0.915 | > 10 | 0.972 | > 10 | 0.823 | 12.4 | 0.889 | > 20
U251 (glioma, adherent) | 0.608 | 1.25 | 0.753 | 0.0103 | – | – | 0.951 | > 10 | 0.882 | 19.5 | 0.778 | 7.71
U-2-OS (osteosarcoma, adherent) | 0.982 | > 10.2 | 0.981 | > 0.032 | – | – | 0.984 | > 10 | 0.978 | > 20 | 0.971 | > 20
U-118-MG (glioma, adherent) | 0.986 | > 10.2 | 0.799 | 0.0182 | 0.986 | > 10 | 0.977 | > 10 | 0.952 | > 20 | 0.986 | > 20
UACC-62 (melanoma, adherent) | 0.979 | > 10.2 | 0.928 | > 0.032 | 0.981 | > 10 | 0.506 | 0.65 | 0.987 | > 20 | 0.988 | > 20
UACC-893 (breast, adherent) | 0.913 | > 10.2 | 0.847 | > 0.032 | 0.979 | > 10 | 0.966 | > 10 | 0.928 | > 20 | 0.972 | > 20
UM-UC-3 (bladder, adherent) | 0.795 | 4.44 | 0.487 | 0.00184 | – | – | 0.955 | > 10 | 0.83 | 11.5 | 0.932 | > 20
UMC-11 (lung carcinoid, adherent) | 0.909 | > 10.2 | 0.926 | > 0.032 | – | – | 0.986 | > 10 | 0.9 | > 20 | 0.892 | 19.2
VM-CUB-1 (bladder, adherent) | 0.982 | > 10.2 | 0.56 | 0.0029 | 0.944 | > 10 | – | – | 0.969 | > 20 | 0.986 | > 20
VMRC-MELG (melanoma, adherent) | 0.987 | > 10.2 | 0.972 | > 0.032 | – | – | 0.982 | > 10 | 0.955 | > 20 | 0.987 | > 20
VMRC-RCZ (kidney, adherent) | 0.924 | > 10.2 | 0.266 | 0.00038 | 0.981 | > 10 | 0.977 | > 10 | 0.875 | > 20 | 0.844 | 18
WM35 (melanoma, adherent) | 0.742 | 3.17 | 0.486 | 0.00184 | 0.983 | > 10 | 0.505 | 0.646 | 0.602 | 2.39 | 0.926 | > 20
WM278 (melanoma, adherent) | 0.984 | > 10.2 | 0.814 | 0.0202 | – | – | 0.856 | 9.71 | 0.677 | 4.19 | 0.945 | > 20
WM793B (melanoma, adherent) | 0.769 | 4.26 | 0.423 | 0.0012 | 0.868 | > 10 | 0.925 | > 10 | 0.946 | > 20 | 0.94 | > 20
WM1552C (melanoma, adherent) | 0.906 | > 10.2 | 0.534 | 0.00248 | 0.814 | 5.49 | 0.951 | > 10 | 0.983 | > 20 | 0.849 | 15.1
WM-115 (melanoma, adherent) | 0.76 | 4.38 | 0.969 | > 0.032 | 0.552 | 0.897 | 0.878 | > 10 | 0.83 | 16.6 | 0.975 | > 20
